# This is one part of the list.
# B1: Epa1-NP-mutant-E227A (Candida glabrata), Q6VBJ0 (protein)
# chain: MILNPALFLNKCVCIYTTLILLLLTNGGYATSSNDISLASKDPTTFPLGCSPDITTPKKGLSMELYSYDFRKKGSYPCWDAAYLDPNYPRTGYKSHRLLAKVDGVTGNINFYYHATKGCTPQLGHLPASYNYPKPLTMTNFTMLLYGYFRPKVTGFHTFTISADDLLFVNFGAGNAFDCCRRDSSADHFGNYQAYAIWGSKTAKDELTVHLDAGVYYPIRLFYNNRAYDGALSFTFKTESNENTVSDFSEYFFSLDDTEEGCPGLISYDSSCASVKTSKIIGIDYHTETPNENLVPITKTIYHLGIPCTGTTTTPLCGSGFYDPLANKCVTINTSSTSSVTKTTSHTTSKEVSFHSSISSQKTLIPKSIPSPYGPIKSQSIPTEMETSSEISSSEYAFSDVISTPSHSPYTKKHSSLNSSSYTSTVIHSLTSYSISQGIFSTSLSEQNITSKSSTDKFSTATSMSNNITQSSIIISQFSTNNENYTTTSMHTSSDKISTETLNNSISTTTSILFSNSSTILKNNTTIISSDKDTHYHPVNPTIVCSTNKTEIICASITQPSISNSNNHWSSSVLKFNSTTVRSTLPSSAGSNETSINVPFSSSTESNTSTSSTSTSNSKMVRSTLPSSAGSNETSISVPFSSSTESNTSTSSTSTSNSKMVRSTLPSSAGSNETSINVPFSSSTESNTSTSSTSTSNSKTVRSTPFSSAGIIMTSLSQRNNKSASSYASSNSKCYNTADSCRKVHSTPSYLLTSSYTSEGVDYDCSLVSTKLKINDTNCVNNKHTTKSCLKTSVTTTIPTLEIKTARKSSSNTIGLHSYPTSSPNKSISSAPIIGYISSFKTIKTASPSYQTSDLTTITTITSLNNPGSTAVENTHESNDKSRKTSSNDISSKHSVIKETKDAVESSNKSHQTNTLKCSSIIIASSSHNSYESLGGTTLTLTLSKVYSPQNNDTLPFLEISEVNPSRTVLPESSKMMQYLTSTEERNKTARNTIATNIVSISTFHFEGEGNAIRMGYTQLLLMLIGIIVMNIGT
# Tests used:
# Assay in all cases: glycan array binding signal (z-score within array); higher = stronger binding
# Conditions in all cases: glycan notation: IUPAC condensed, linker removed; mutation: E227A
# [1] = target: GlcNAc(b1-3)Gal(b1-4)GlcNAc(b1-3)Gal(b1-4)GlcNAc(b1-3)Gal(b1-4)GlcNAc(b1-3)Gal(b1-4)GlcNAc(b1-2)[GlcNAc(b1-3)Gal(b1-4)GlcNAc(b1-3)Gal(b1-4)GlcNAc(b1-3)Gal(b1-4)GlcNAc(b1-3)Gal(b1-4)GlcNAc(b1-6)]Man(a1-6)[GlcNAc(b1-3)Gal(b1-4)GlcNAc(b1-3)Gal(b1-4)GlcNAc(b1-3)Gal(b1-4)GlcNAc(b1-3)Gal(b1-4)GlcNAc(b1-2)Man(a1-3)]Man(b1-4)GlcNAc(b1-4)[Fuc(a1-6)]GlcNAc
# How it was run: (§1)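 Negative Z-scores can be read as non-binding. The Z-score is calculated within each array and then averaged across arrays of one protein sequence at different concentrations or buffers and across linkers. Arrays, 3228 in all, were curated from the Consortium for Functional Glycomics database and kept only where the protein sequence was available.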
# [2] = target: GlcNAc(b1-3)Gal(b1-4)GlcNAc(b1-3)Gal(b1-4)GlcNAc(b1-3)GalNAc
# How it was run: as §1
# [3] = target: GlcNAc(b1-3)Gal(b1-4)GlcNAc(b1-3)GalNAc
# How it was run: as §1
# [4] = target: GlcNAc(b1-3)Gal(b1-4)GlcNAc(b1-3)[GlcNAc(b1-3)Gal(b1-4)GlcNAc(b1-3)]GalNAc
# How it was run: as §1
# [5] = target: GlcNAc(b1-3)Gal(b1-4)GlcNAc(b1-6)[Gal(b1-3)]GalNAc
# How it was run: as §1
# [6] = target: GlcNAc(b1-3)Gal(b1-4)GlcNAc(b1-6)[GlcNAc(b1-3)Gal(b1-3)]GalNAc
# How it was run: as §1
# [7] = target: GlcNAc(b1-3)Gal(b1-4)GlcNAc(b1-6)[GlcNAc(b1-3)]Gal(b1-4)GlcNAc
# How it was run: as §1
# GlcNAc(b1-3)GalNAc = target: GlcNAc(b1-3)GalNAc
# How it was run: as §1
# GlcNAc(b1-3)Man = target: GlcNAc(b1-3)Man
# How it was run: as §1
# [8] = target: GlcNAc(b1-3)[GlcNAc(b1-4)][GlcNAc(b1-6)]GlcNAc
# How it was run: as §1
# [9] = target: GlcNAc(b1-3)[GlcNAc(b1-6)]Gal(b1-4)GlcNAc
# How it was run: as §1
# [10] = target: GlcNAc(b1-3)[GlcNAc(b1-6)]GalNAc
# How it was run: as §1
# [11] = target: GlcNAc(b1-4)Gal(b1-4)GlcNAc
# How it was run: as §1
# GlcNAc(b1-4)GlcNAc = target: GlcNAc(b1-4)GlcNAc
# How it was run: as §1
# [12] = target: GlcNAc(b1-4)GlcNAc(b1-4)GlcNAc
# How it was run: as §1
# [13] = target: GlcNAc(b1-4)GlcNAc(b1-4)GlcNAc(b1-4)GlcNAc(b1-4)GlcNAc
# How it was run: as §1
# [14] = target: GlcNAc(b1-4)GlcNAc(b1-4)GlcNAc(b1-4)GlcNAc(b1-4)GlcNAc(b1-4)GlcNAc
# How it was run: as §1
# [15] = target: GlcNAc(b1-4)[GlcNAc(b1-6)]GalNAc
# How it was run: as §1
# [16] = target: GlcNAc(b1-6)Gal(b1-4)GlcNAc
# How it was run: as §1
# GlcNAc(b1-6)GalNAc = target: GlcNAc(b1-6)GalNAc
# How it was run: as §1
# [17] = target: GlcNAc6S(b1-3)Gal(b1-4)GlcNAc
# How it was run: as §1
# Kdn(a2-3)Gal(b1-3)GalNAc = target: Kdn(a2-3)Gal(b1-3)GalNAc
# How it was run: as §1
# Kdn(a2-3)Gal(b1-3)GlcNAc = target: Kdn(a2-3)Gal(b1-3)GlcNAc
# How it was run: as §1
# Kdn(a2-3)Gal(b1-4)Glc = target: Kdn(a2-3)Gal(b1-4)Glc
# How it was run: as §1
# Kdn(a2-3)Gal(b1-4)GlcNAc = target: Kdn(a2-3)Gal(b1-4)GlcNAc
# How it was run: as §1
# [18] = target: Kdn(a2-3)Gal(b1-4)[Fuc(a1-3)]GlcNAc
# How it was run: as §1
# Kdn(a2-6)Gal(b1-4)GlcNAc = target: Kdn(a2-6)Gal(b1-4)GlcNAc
# How it was run: as §1
# [19] = target: Man(a1-2)Man(a1-2)Man(a1-3)Man
# How it was run: as §1
# [20] = target: Man(a1-2)Man(a1-2)Man(a1-6)[Man(a1-3)]Man
# How it was run: as §1
# Man(a1-2)Man(a1-3)Man = target: Man(a1-2)Man(a1-3)Man
# How it was run: as §1
binder,measurement,setting,value
B1,glycan array binding signal (z-score),[1],-0.169
same,glycan array binding signal (z-score),[2],-0.189
same,glycan array binding signal (z-score),[3],-0.192
same,glycan array binding signal (z-score),[4],-0.196
same,glycan array binding signal (z-score),[5],0.563
same,glycan array binding signal (z-score),[6],-0.207
same,glycan array binding signal (z-score),[7],-0.208
same,glycan array binding signal (z-score),GlcNAc(b1-3)GalNAc,-0.214
same,glycan array binding signal (z-score),GlcNAc(b1-3)Man,-0.215
same,glycan array binding signal (z-score),[8],-0.2
same,glycan array binding signal (z-score),[9],-0.174
same,glycan array binding signal (z-score),[10],-0.223
same,glycan array binding signal (z-score),[11],-0.178
same,glycan array binding signal (z-score),GlcNAc(b1-4)GlcNAc,-0.196
same,glycan array binding signal (z-score),[12],-0.241
same,glycan array binding signal (z-score),[13],-0.147
same,glycan array binding signal (z-score),[14],-0.223
same,glycan array binding signal (z-score),[15],-0.193
same,glycan array binding signal (z-score),[16],0.346
same,glycan array binding signal (z-score),GlcNAc(b1-6)GalNAc,-0.209
same,glycan array binding signal (z-score),[17],0.425
same,glycan array binding signal (z-score),Kdn(a2-3)Gal(b1-3)GalNAc,-0.189
same,glycan array binding signal (z-score),Kdn(a2-3)Gal(b1-3)GlcNAc,-0.204
same,glycan array binding signal (z-score),Kdn(a2-3)Gal(b1-4)Glc,-0.171
same,glycan array binding signal (z-score),Kdn(a2-3)Gal(b1-4)GlcNAc,-0.131
same,glycan array binding signal (z-score),[18],-0.188
same,glycan array binding signal (z-score),Kdn(a2-6)Gal(b1-4)GlcNAc,-0.156
same,glycan array binding signal (z-score),[19],-0.221
same,glycan array binding signal (z-score),[20],-0.224
same,glycan array binding signal (z-score),Man(a1-2)Man(a1-3)Man,-0.203

# From the supplement of paper PMC8728848
